Measured values reported in PubChem BioAssay AID485281 (National Center for Advancing Translational Sciences (NCATS), 2010).
The whole screen tested about 350,000 compounds, of which about 260 (0.074%) were called active. Inconclusive means that the source gave no clear call. Such entries were picked first, then a sample of the others. Calls follow the shape of the dose curve; as a rule, active = well fitted inhibition curve with a large enough effect; inconclusive = small, poorly fitted or top-dose-only effect; inactive = no such curve, though single readings can be large or run the other way. A potency beside an inconclusive call is a rough fit, not a confirmed value.

Molecular target: Ferritin light chain (Equus caballus) (UniProt P02791)
UniProt P02791, sequence (P02791 whole entry, looked up): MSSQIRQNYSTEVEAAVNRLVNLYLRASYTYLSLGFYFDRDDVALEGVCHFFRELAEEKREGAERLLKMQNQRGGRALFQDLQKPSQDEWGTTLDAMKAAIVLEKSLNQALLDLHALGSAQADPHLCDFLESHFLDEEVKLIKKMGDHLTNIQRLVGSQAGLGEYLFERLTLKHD
Test: qHTS Assay for Identification of Novel General Anesthetics; also: nearly all actives have a fitted effect of over 20% in size
Conditions: apoferritin/1-aminoanthracene competitive binding, fluorescence; series mostly up to 77.5 µM
How it was run: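 Probe: 1-aminoanthracene (50% saturated, PBS). Protein: horse-spleen apoferritin, 10 uM. Incubation: 10 min, room temperature. Detection: 380 nm excitation, 535 nm emission. Analysis: normalized response, four-parameter Hill.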
Potency is read from the fitted curve at half-maximal effect; tags tell the direction and shape of the fitted curve.

**Q.** `COc1cccc(CN=C2Nc3ccccc3CS2)c1` was tested. Which Potency did it give?
**A.** inconclusive: 12.6 µM [inhibitor, partial curve]

**Q.** Which Potency does the source give for `Cc1cc(C)n2nc(SCc3nnc(SCc4ccccc4C)s3)nc2n1` here?
**A.** inconclusive: 31.6 µM [inhibitor, partial curve]

**Q.** For `CN1CCN(c2nc(-c3ccc(Br)cc3)nnc2-c2ccccc2)CC1`, which Potency is on record?
**A.** inconclusive: 31.6 µM [inhibitor, partial curve]

**Q.** With `Cc1cccc(NC(=O)CSC2=Nc3ccccc3C3=NC(CC(=O)NCc4cccs4)C(=O)N23)c1` (stereo not given) as the molecule, how does the Potency read?
**A.** inconclusive: 22.4 µM [inhibitor, partial curve]

**Q.** `CCOc1ccc2c(c1)c(C(C)=O)c(C)n2-c1ccccc1` was tested. Which Potency did it give?
**A.** inactive

**Q.** Which Potency does the source give for `Cc1ccc2nc(NC(=O)COC(=O)c3ccc(Br)o3)sc2c1` here?
**A.** inconclusive: 35.5 µM [inhibitor, partial curve]

**Q.** With `Cc1cc(C)cc(NC(=O)C2CCCN(S(=O)(=O)c3ccc4[nH]c(=O)ccc4c3)C2)c1` (stereo not given) as the molecule, how does the Potency read?
**A.** inconclusive: 20 µM [inhibitor, partial curve]

**Q.** How did the Potency turn out when `CC(c1ccccc1)c1nnc(NC(=O)Nc2ccccc2)s1` (stereo not given) was run?
**A.** inconclusive: 28.2 µM [inhibitor, partial curve]

**Q.** How did the Potency turn out when `COc1ccc2cc(-c3cc(C(=O)OCC(=O)NC4CCS(=O)(=O)C4)c4ccccc4n3)ccc2c1` (stereo not given) was run?
**A.** inactive

**Q.** Which Potency does the source give for `CSc1ncccc1C(=O)OCc1ccccc1Cl` here?
**A.** inconclusive: 17.8 µM [inhibitor, partial curve]

**Q.** `CCCCn1c(-c2cc(Cl)ccc2OC)n[nH]c1=S` was tested. Which Potency did it give?
**A.** inconclusive: 25.1 µM [inhibitor, partial curve]

**Q.** For `Cc1ccccc1NCC(=O)N/N=C\c1ccc([N+](=O)[O-])s1`, which Potency is on record?
**A.** inconclusive: 14.1 µM [inhibitor, partial curve]

**Q.** `CC(C)(C)c1cc(CN2CCCC(O)C2)c(O)c(C(C)(C)C)c1` (stereo not given) was tested. Which Potency did it give?
**A.** inconclusive: 17.8 µM [inhibitor, partial curve]

**Q.** With `O=C(Nc1ccccn1)c1ccc(S(=O)(=O)c2ccc(Cl)cc2)cc1` as the molecule, how does the Potency read?
**A.** inconclusive: 28.2 µM [inhibitor, single point]

**Q.** Which Potency does the source give for `Oc1ccccc1CNc1ccc(Br)cn1` here?
**A.** inconclusive: 22.4 µM [inhibitor, partial curve]

**Q.** With `Cn1c(N2CCC(C(N)=O)CC2)nc2c1c(=O)n(Cc1ccc(Cl)cc1)c(=O)n2C` as the molecule, how does the Potency read?
**A.** inactive

**Q.** For `COc1cc(SC#N)ccc1N=Cc1c(C)[nH]n(-c2ccc(C)cc2C)c1=O`, which Potency is on record?
**A.** inconclusive: 20 µM [inhibitor, partial curve]

**Q.** For `O=C(Cn1c(CN2CCCCC2)nc2ccccc2c1=O)NC1CCCCC1`, which Potency is on record?
**A.** inconclusive: 31.6 µM [inhibitor, single point]

**Q.** For `CC1=C(C#N)C(c2cccnc2)C2=C(CCCC2=O)N1` (stereo not given), which Potency is on record?
**A.** inactive

**Q.** How did the Potency turn out when `COC(=O)c1[nH]c2ccc(C)cc2c1NC(=O)CN1CCc2cc(OC)c(OC)cc2C1` was run?
**A.** inconclusive: 8.91 µM [inhibitor, partial curve]

**Q.** With `CCCCNC(=O)NC(C(=O)OC)C12CC3CC(CC(C3)C1)C2` (stereo not given) as the molecule, how does the Potency read?
**A.** inconclusive: 28.2 µM [inhibitor, single point]

**Q.** For `CCOc1ccc(C2C(C(=O)OC)=CN(CCOC)C=C2C(=O)OC)cc1`, which Potency is on record?
**A.** inactive

**Q.** With `NCCCCCc1nnc(SCC(=O)c2ccc(Cl)cc2)o1` as the molecule, how does the Potency read?
**A.** inconclusive: 35.5 µM [inhibitor, partial curve]

**Q.** `Cc1cccc(C[C@H](C(=O)O)N2C(=O)c3ccc(C(=O)O)cc3C2=O)c1` was tested. Which Potency did it give?
**A.** inactive

**Q.** How did the Potency turn out when `CCc1cccc(NC(=O)CSc2ncccc2C(=O)Oc2ccccc2Cl)c1` was run?
**A.** inconclusive: 31.6 µM [inhibitor, partial curve]

**Q.** Which Potency does the source give for `COc1ccc(/C(C)=C2\SC(=S)N(CCC(=O)O)C2=O)cc1` here?
**A.** inconclusive: 31.6 µM [inhibitor, partial curve]

**Q.** `CCOc1cccc(=O)c2c(C)n(Cc3ccco3)c(C)c12` was tested. Which Potency did it give?
**A.** inconclusive: 31.6 µM [inhibitor, partial curve]

**Q.** `CCOC(=O)CSc1nnc(-c2ccco2)n1-c1ccccc1` was tested. Which Potency did it give?
**A.** inconclusive: 31.6 µM [inhibitor, partial curve]

**Q.** `Cc1ccc(-c2nnc(N3CCC(C)CC3)c3ccccc23)cc1C` was tested. Which Potency did it give?
**A.** inconclusive: 35.5 µM [inhibitor, partial curve]

**Q.** `O=C(c1ccc2c3n(nc2c1)-c1ccc(Cl)cc1CO3)N1CCCCC1` was tested. Which Potency did it give?
**A.** inactive

**Q.** For `COc1ccccc1OCCCOc1cccc(/C=C2\SC(=O)NC2=O)c1`, which Potency is on record?
**A.** inconclusive: 28.2 µM [inhibitor, partial curve]

**Q.** How did the Potency turn out when `CC1CCN(c2nc3ccc(C(=O)N4CCN(Cc5ccc6c(c5)OCO6)CC4)cc3s2)CC1` was run?
**A.** inconclusive: 5.62 µM [inhibitor, full curve, poor fit]

**Q.** How did the Potency turn out when `COc1cccc(N2CCN(CC(=O)c3c[nH]c4ccc(OC)cc34)CC2C)c1` (stereo not given) was run?
**A.** inconclusive: 22.4 µM [inhibitor, partial curve]

**Q.** Which Potency does the source give for `COc1ccc(CC(=O)NNC(=O)c2ccc(SCc3cc(F)ccc3F)c([N+](=O)[O-])c2)cc1` here?
**A.** inconclusive: 35.5 µM [inhibitor, partial curve]

**Q.** With `O=C(Nc1nccs1)c1ccc(Cl)c(S(=O)(=O)N2CCCCC2)c1` as the molecule, how does the Potency read?
**A.** inconclusive: 17.8 µM [inhibitor, partial curve]

**Q.** How did the Potency turn out when `Cc1cccc(-c2noc(-c3ccc(N4CCN(C)CC4)c([N+](=O)[O-])c3)n2)c1` was run?
**A.** inconclusive: 31.6 µM [inhibitor, partial curve]

**Q.** For `CCCCNC(=O)COC(=O)c1ccc(Cl)c(S(N)(=O)=O)c1`, which Potency is on record?
**A.** inactive

**Q.** Which Potency does the source give for `CCCSc1nsc(NC(=O)CCC)n1` here?
**A.** inactive

**Q.** `COc1ccccc1NS(=O)(=O)c1ccc2oc(SC3CCOC3=O)nc2c1` (stereo not given) was tested. Which Potency did it give?
**A.** inconclusive: 39.8 µM [inhibitor, partial curve]

**Q.** For `COC(=O)N1C(=O)[C@](c2ccccc2)(C2CCCCC2)N1C(=O)OC`, which Potency is on record?
**A.** inconclusive: 44.7 µM [inhibitor, single point]

**Q.** With `CCn1cc(C(=O)NCC2CCCO2)c(=O)c2cc(S(=O)(=O)N3CCC(C)CC3)ccc21` (stereo not given) as the molecule, how does the Potency read?
**A.** inconclusive: 28.2 µM [inhibitor, partial curve]

**Q.** `CCCn1c(-c2cccc(Br)c2)nc2ccccc21` was tested. Which Potency did it give?
**A.** inconclusive: 15.8 µM [inhibitor, partial curve]

**Q.** `O=C1CC(c2ccc3c(c2)OCCO3)Oc2ccccc21` (stereo not given) was tested. Which Potency did it give?
**A.** inconclusive: 50.1 µM [inhibitor, single point]

**Q.** With `O=C1N/C(=N\S(=O)(=O)Cc2ccccc2)S/C1=C/c1cc([N+](=O)[O-])ccc1O` as the molecule, how does the Potency read?
**A.** inactive

**Q.** `CCOc1ccccc1N1CCN(Cc2ccc(Br)s2)CC1` was tested. Which Potency did it give?
**A.** inactive

**Q.** Which Potency does the source give for `Cc1ccc(C(=O)CCC2CCCCC2=O)cc1` (stereo not given) here?
**A.** inconclusive: 25.1 µM [inhibitor, partial curve]

**Q.** How did the Potency turn out when `O=C(COC(=O)CCC(=O)c1cccs1)Nc1cccc(S(=O)(=O)N2CCOCC2)c1` was run?
**A.** inconclusive: 28.2 µM [inhibitor, partial curve]

**Q.** How did the Potency turn out when `COC(=O)CN1C(=O)[C@H]2[C@@H](/C=C/c3ccccc3)N3C(=O)CN(Cc4ccccc4)C(=O)[C@@]3(Cc3ccccc3)[C@H]2C1=O` was run?
**A.** inconclusive: 31.6 µM [inhibitor, partial curve]

**Q.** Which Potency does the source give for `O=[N+]([O-])c1ccccc1Oc1ccc(Cl)c2cccnc12` here?
**A.** inconclusive: 50.1 µM [inhibitor, single point]

**Q.** `COc1cc(/C=N/N=C2\CC3CCC2(C)C3(C)C)ccc1O` (stereo not given) was tested. Which Potency did it give?
**A.** inconclusive: 39.8 µM [inhibitor, partial curve]

**Q.** For `COc1ccc(CCNC(=O)c2ccc(-c3cccc([N+](=O)[O-])c3)o2)cc1OC`, which Potency is on record?
**A.** inconclusive: 31.6 µM [inhibitor, partial curve]

**Q.** For `CCCCCCc1ccc(N2C[C@H](C)[C@@H](CC(=O)NCc3ccccc3)C2=O)cc1`, which Potency is on record?
**A.** inconclusive: 35.5 µM [inhibitor, partial curve]

**Q.** `O=C(O)c1cc([N+](=O)[O-])ccc1NCc1ccccc1` was tested. Which Potency did it give?
**A.** inconclusive: 44.7 µM [inhibitor, partial curve]

**Q.** For `CCOc1cc(S(=O)(=O)N(CC)CC)c(OCC)cc1-n1cnnn1`, which Potency is on record?
**A.** inactive

**Q.** For `COC(=O)Cn1c(O)c(N=NC(=O)CNC(=O)c2ccc3c(c2)OCCO3)c2ccccc21`, which Potency is on record?
**A.** inconclusive: 25.1 µM [inhibitor, partial curve]

**Q.** With `Cc1cc(/N=C/C=C2\N(C)c3ccccc3C2(C)C)n(CCC#N)n1` as the molecule, how does the Potency read?
**A.** inconclusive: 39.8 µM [inhibitor, single point]

**Q.** With `Cc1ccc(C)c(Cc2c(C)nc3c(C(=O)NCc4ccc5c(c4)OCO5)cnn3c2C)c1` as the molecule, how does the Potency read?
**A.** inconclusive: 3.98 µM [inhibitor, single point]

**Q.** `O=C1CCC(=O)N1CNc1ccc(Oc2ccccc2)cc1` was tested. Which Potency did it give?
**A.** inconclusive: 17.8 µM [inhibitor, partial curve]

**Q.** With `Cc1ccc(C2=NN(CCC(=O)NCc3ccc4c(c3)OCO4)C(=O)CC2)cc1` as the molecule, how does the Potency read?
**A.** inconclusive: 39.8 µM [inhibitor, single point]

**Q.** How did the Potency turn out when `Cc1nnc(SCC(=O)Nc2nsc(-c3ccc(C(C)(C)C)cc3)n2)s1` was run?
**A.** inconclusive: 28.2 µM [inhibitor, partial curve]

**Q.** `Cc1ccc(C2=NN(CC(=O)NCCN(CC(C)C)CC(C)C)C(=O)CC2)cc1` was tested. Which Potency did it give?
**A.** inconclusive: 12.6 µM [inhibitor, partial curve]

**Q.** With `Cc1ccc(CNc2cccnc2)cc1` as the molecule, how does the Potency read?
**A.** inconclusive: 22.4 µM [inhibitor, partial curve]

**Q.** `CCOc1ccc(N(CC(=O)Nc2ccc(C)cc2)S(C)(=O)=O)cc1` was tested. Which Potency did it give?
**A.** inactive

**Q.** For `Nc1nc(Nc2ccccc2)nc(NC2CCCCC2)c1[N+](=O)[O-]`, which Potency is on record?
**A.** inconclusive: 31.6 µM [inhibitor, single point]

**Q.** For `N/C(=N\OC(=O)Cc1ccccc1[N+](=O)[O-])c1ccc(Br)cc1`, which Potency is on record?
**A.** inconclusive: 39.8 µM [inhibitor, single point]
